This assay concerns A498 renal. In words: NCI-60 one-dose screen, 48 h (100 = growth as untreated, 0 = no growth, -100 = all killed).

Some compounds were tested as several samples or in several runs, with calls that do not always agree.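 Results are percent growth after 48 hours of single-concentration exposure. 100 means growth as in untreated cells, lower positive values show inhibition; negative values down to -100 show cell death.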 Certain results were filed several times, with different values. This is not the full list of results. The source may hold further records. The calls were made as follows: active = growth percent below 10; inactive = the rest. This drug was run again and again over the years, at the concentration stated with the values; each value is one run. Signs of the kind (2×) give the number of equal values in this list.

On to `COc1cccc2c1C(=O)c1c(O)c3c(c(O)c1C2=O)C[C@@](O)(C(=O)CO)C[C@@H]3OC1CC(N)C(O)C(C)O1` (stereo not given in full), for which the growth result is “inactive: 54.3, 22.6, 51.1, 50.7, 28.4, 25.4, 46.2 (2×), 53.7, 38.3, 45.1, 46, 60.8, 45.6, 12.2, 15.7, 15, 30.7, 25.8, 17.2, 20.9, 23.9 (2×), 39.4, 38.1, 49.9, 47.4, 45.7, 52.3, 60.9, 49.4 (2×), 42.2, 63.6, 61.5, 52.5 (2×), 51.2, 44.4, 39.8, 40.4, 49.1 (2×), 45.4, 48.5, 53.8, 38.5, 42.6, 59.9 (2×), 57.7, 58.4, 65.1, 59.7, 59.3, 78.4, 59.6, 67.4, 61.8, 70.8, 31.5, 52.4, 47.9, 46.3, 44.8, 48.7, 53.6, 32.8, 27.1, 42.5, 49.3, 33, 10%” (0.25 µM, runs of 2012); “inactive: 34.8, 42.5, 45.3, 51.2, 26.3, 14.9, 55.4, 56.3, 56.1, 58.7, 45.2, 47.4, 23.9, 47.2 (2×), 49.8, 44, 41.5 (2×), 26.8, 46.7, 44.3 (3×), 61.5, 56, 48, 50.5, 42.3, 45.4 (2×), 50.2, 43.3, 46.4, 46.6, 53, 46, 45.5 (2×), 47.8, 57.5, 54.3, 45.8, 43, 49.1, 40, 42.9, 40.9, 51.1, 38.5, 33.4, 49.3, 49.6, 50.7, 44.5, 55.7, 50.4, 34.2, 22.8 (2×), 19.3, 14.6, 32.5, 28.6, 16.1, 28.9, 22.4, 30.9, 23.6, 19.4, 39.2, 35.1, 34.9, 19.7, 27.2, 20.6, 37.5, 12.5, 34.6% and active: 7.66%” (0.25 µM, runs of 2013); “inactive: 14.5, 41, 36.7, 43.2, 47.9, 41.1 (2×), 33.7, 40.5 (2×), 36.8, 46.3, 40.7, 44.5, 42, 40.8, 21, 26.1, 28, 26.9, 16.3, 26.4, 40.1, 34.1, 32.9, 36.1, 45.2, 48.2, 39.7, 41.2 (2×), 40.3, 43.4, 38.7, 48.3, 43, 37.8, 39.6, 45.5 (2×), 41.6, 37.5, 44.4, 48.4, 38.8, 39.4, 49.9, 40.9, 44.1, 65.2, 52.7, 66, 51.3, 40.6, 41.9, 64.5, 50.2 (2×), 51.7, 53.7 (2×), 47.3, 52.1, 42.9, 39.8, 40.4, 44.7, 56.5, 51.6, 53.8, 54.2, 35.7, 37.3, 63.9, 76.7, 56.9, 77.8% and active: 8.9%, 2.52%, -4.4%” (0.25 µM, runs of 2014); “inactive: 66.7, 55.3, 44.2, 46.3, 36.5 (2×), 34.9 (2×), 37.7, 43.8, 35.1, 20.4, 19.5, 48.5, 57.4 (2×), 53.7, 42.2 (2×), 43.2, 47.8 (2×), 11.8, 24.2 (2×), 35.6, 39.7, 53.1 (2×), 56, 51.1, 47.7 (2×), 31.8, 38.8, 22, 27.7, 33, 26.5, 38.6, 41.6, 36.1, 30.8, 51.2, 26.4, 48.2, 43.5, 32.2, 61.1, 38.1, 44.4, 32.4, 44.5, 34.5, 59.6, 54.5, 56.3, 57.2, 61.7, 47.4, 45.9, 40, 38.9, 45.4, 47.5, 26.1, 36, 25.2, 40.8, 50.5, 48.8, 28, 39.9, 55.8, 59.1, 52.6, 58.3, 55.4% and active: 4.87%, 7.81%, 3.51%” (0.25 µM, runs of 2015); “inactive: 50.9 (2×), 51.8, 53.5, 62.1, 58.9 (2×), 56.6 (2×), 39.4, 31.4, 33.6, 33.3, 29.1, 24.1, 53.3, 48.6, 36.3, 34.1, 53, 58.1, 25.5, 26, 59, 55.8, 44.7 (2×), 43.1, 55.9 (2×), 52, 54.8, 58.8 (2×), 40, 45.1, 34.7, 26.8, 59.1, 57.6, 42.3, 42.2, 47.7, 46.8, 44.9, 49.3, 49.2, 44.4, 51, 44.5 (2×), 59.7 (2×), 54.2, 46.3, 46, 55.1, 48.5, 65.3, 61.6, 57.1, 57.9, 58.7, 72.6, 62.3, 71.9, 63.7, 58.6, 62.5 (2×), 57.3, 60, 52.1, 45.7, 69.2, 60.5, 47.4, 57.7, 61.2, 68.5, 72.5, 61.5, 63.4, 67, 67.4, 69.9%” (0.25 µM, runs of 2016); “inactive: 69.5, 63.6 (2×), 54.8 (2×), 58.1 (2×), 56.8, 47.4, 54.4, 43, 41.7, 40.5, 52.4 (3×), 47.3, 41.6, 52.1 (3×), 49, 49.8, 51.8, 47.1, 45.8, 58.8, 47.8 (2×), 49.2, 50.4, 46.9, 60.9, 53.3, 44.9, 42.6, 43.1, 54.2, 57.6, 40.4, 46 (2×), 51.5 (4×), 46.8, 59, 53.2, 56.1, 54.3, 53.9, 62.6, 65.1, 52.2, 44.8, 56.9, 43.7, 47.9 (2×), 48.6, 48.9, 49.3, 53.5, 47.5, 51.1, 62.7, 45.4, 41.3, 55, 55.8, 50.5, 67.6, 50, 50.7, 45.2, 47.7, 25.8, 32.5%” (0.25 µM, runs of 2017). In addition, the growth entry is, setting by setting: (0.25 µM, runs of 2018) “inactive: 47.6, 44.8, 34.8, 31, 43.9, 41.6, 42.9, 45.2, 54.5 (2×), 45.1, 50.9, 43.3, 56.3 (2×), 40.8, 46.9, 51.8, 54.3, 46.8, 38.3 (2×), 29.3, 33, 42, 48.2, 39.3, 40.3, 30.4, 13.3, 30.9, 36.8, 60.6, 60.7, 31.3, 34.1, 32.2, 31.2, 38.1, 35.6 (2×), 37.4, 52, 42.8, 43.5, 40.5, 40.9, 38.9, 44.3, 35.5, 15.1, 22.9, 35.1, 10.2% and active: 4.33%”; (0.25 µM, runs of 2019) “inactive: 13.3, 22.8, 27, 10.2, 39, 18.6, 18.1 (2×), 21.4, 25.3, 30.8 (3×), 11.2, 38.9, 43.1, 46.4, 28.9, 33.9, 10.8, 83.4, 15.7, 24.6, 23.3, 25.9, 23.7, 24.3, 35.8, 40.9, 40.8, 26.7, 25.5, 39.5, 32.5, 45.8, 45.7% and active: -10.7, 5.99, -0.171, -3.4, 5.56%”; (0.25 µM, runs of 2020) “inactive: 18.2, 32.6, 36.3, 35.5, 22.1, 24.1, 21.8, 38.4, 41.2, 35.9, 27.9, 33.8, 29.1, 48.1, 32.4, 38.7, 37.5, 50, 46, 54.4, 23% and active: 9.76%, 9.08%, 4.32%”; (0.25 µM, runs of 2021) “inactive: 33, 47.8, 31.3, 37.5, 42.8, 52.5, 31.4, 34.3, 39.1, 42.1, 35.2, 33.8, 40.6, 33.3, 32.8, 37.3, 46.3, 35.3, 22.1, 21.5, 33.6, 29.5, 40.9, 19.2, 20, 26.2, 31, 20.8 (2×), 22.9 (2×), 23.5, 20.6, 15.9, 16.5, 18, 74.8, 31.8, 35.5, 63.7, 38.8, 32.5, 75.1, 75.2, 59.4, 71.5, 63.4, 71.7, 67, 62.6, 69.4%”; (0.25 µM, runs of 2022) “inactive: 52.4, 53.6, 63.6, 79.3, 55.6, 60.3, 81.5, 86.7, 65.2, 67.8, 75, 59.6, 67.7 (2×), 81.4, 66.3, 54.6, 77.2, 83.2, 55.3, 79.7, 80.8, 71.8, 80.3, 69.6% and active: 7.64%”; (25 µM, runs of 1991) “active: -64.6, -82.7, -82.1, -95.8, -87.5, -91.6, -57.8, -62.7, -71.7, -83.9, -77.1, -54.2, -44.2, -72.9, -81.4, -38.7, -47.2, -72.6%”. Further, the growth result reads like this: (25 µM, runs of 1992) “active: -90.5, -53.1, -65.3, -61.5, -14.8, -80.1, -72.1 (2×), -81.6 (2×), -90.2, -62.3, -54.4, -61.3, -69.4 (2×), -77, -80.4 (2×), -85.7, -80.3, -81.3, -63.7, -67.5, -86.4, -78.4, -51.2, -23.8, -45, -79.3, -62.8, -87.2, -69.5, -78.7, -77.3, -88.9, -90.6, -73.1, -83.7, -35.7, -74.2, -67.8, -74.3, -68.8, -63.6, -65, -82.2, -50.8, -66.9, -84.3, -52.8, -62.6 (2×), -52.3, -63.3, -74.8 (2×), -68.9, -87.6 (2×), -84, -57.4, -81.5, -72.9, -78.2, -43.8, -56, -47, -47.1, -84.2 (2×), -85.6, -82.1, -74.6, -69.2, -77.2, -63, -80.2, -79.4, -86.5, -83.6, -89.6, -82.6 (2×), -72.5, -77.6 (2×), -86, -87.5, -75.9, -70.1, -83.3, -69.1, -80.6, -73.5, -77.9, -65.2, -10.2, -55.5, -79.7%”; (25 µM, runs of 1993) “active: -52.6, -70.1, -65.8 (2×), -38.4, -63.9, -89.3, -76.9, -60.4, -72.3, -74.1, -64.8, -11.7, -60.7, -31.9, -55.3, -67.9, -52.1, -58.6, -76.6, -60.8, -69.1, -83.1, -68.1, -91 (2×), -54.9, -70.7, -86.4, -92.7, -83.5, -41.7, -87.2, -81.3%”; (25 µM, runs of 1994) “active: -54.1, -94.2, -80.5, -80, -87.8, -57.6, -92.2, -83.9, -87.5, -69.3, -84, -44.8, -49.7, -86.9, -76.5, -82.7, -86.2, -74.7, -45.5, -69.1, -72.3, -45.4, -36.5, -22.7, -25.7, -73.6% and inactive: 63.2%”.

The values above are taken from PubChem BioAssay (NCI).
